Sequences with one replicate were seen in a single cluster, so their values are uncertain.
Tested on: ATP
Experiment: switch fluorescence ratio, 500 uM ATP over buffer (Cy3 cluster intensity, sum of 5 cycles each) (fold (ratio)); higher = stronger signal-on switching upon ATP binding; sequences stand for … in TCGTCGGCAGCGTCAGATGTGTATAAGAGACAGTTTTTTTTTTTTTTTTTTTTTTTTT…TC
Settings: aptamer strand: ATP DNA aptamer (quencher-CACCTGGGGGAGTATTGCGGAGGAAGG + anchor), 100 nM annealed; ATP concentration: 500 uM; one replicate
Outline: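 The quencher-labelled ATP aptamer, at 100 nM, was annealed to Cy3-labelled switching-strand clusters on a modified Illumina MiSeq flow-cell. The clusters were imaged in selection buffer, then after 15 min with 500 uM ATP at 22 °C, and this buffer/ATP cycle ran five times with NaOH stripping and re-annealing between runs. Per-cluster fluorescence ratios, summed target-cycle over summed buffer-cycle Cy3 intensity, were averaged per switch-domain sequence. Clusters outside 100-1000 RFU were excluded.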
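Also: ATP exposure 15 min at 22 °C before imaging.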

Sequence	switch fluorescence ratio
CGTCAGCATA	4.67
GAATGTTACG	1.03
ACTAGCCACT	0.997
ACCTTCACTC	2.1
AGTTCAATCG	1
GATGGGCCTG	0.975
ATGCAACGTT	1.02
TCATTGTATA	0.966
ATCCCGGCCA	1.05
TATCGCGGC	1.77
GTTATATTT	0.997
AGGGGTCGG	1.04
CTTGATAAGG	0.988
TACAGTATG	0.981
TAGTAGGGG	0.977
TGTAGTGGGG	0.998
CGTTGGTATT	1.01
GGTGGAAGGT	1.01
AGGTCGTTCA	0.983
AAGTGCTAAC	1.01
GGCTTAAGGA	1.05
GTTCCTGTTA	0.97
GAAATAGGTG	1.12

Sequence	switch fluorescence ratio
CCGTTTTTGA	1
TAGTTCTGCC	1.02
TCGTGAATGC	1.94
CCGCGGGTCA	1.02
TTGCGATGAA	1.04
CATCAGCCGA	1.13
TGAATAGTTA	0.987
TTGTAGGC	1.01
GGGACCTACA	1.18
ACTACTTGTG	1
GACAAATGAC	1.25
AGCTCATTA	1.01
AAGTAAAATG	1.04
CACTCTACCT	1.32
ACCTACTTCA	1.2
ACAAGTCTCA	1.01
GATGTCGCCG	0.965
ATTCGTGGTG	1.02
GCCCGAAGAG	1.67
CGTATAGGCT	1.01
CGATTGAGAG	0.97
TCATGGACGC	1.02
GCGTGTAACG	0.99

Sequence	switch fluorescence ratio
TCCCTTTTT	1.06
CGGAGTAGGA	1.04
GCTCCCCGTA	1.06
GAGACACCAG	1.07
ACACGTGCGG	0.996
CCAGCCTCGT	1.05
ATAGCGGGGT	0.96
ATGTCTTCGT	0.997
TATTGTATA	0.958
CTCGTTGTCT	0.974
TTTGGCGTAG	0.982
GTGCTAGTGA	1
TTACCGGTGC	1.12
ATAAGATC	0.955
TAATAAGTTG	1.03
TGAAATGTTC	1.01
ACGTTACATG	1.43
ATTACTGCG	1.03
ATATGAATCA	0.976
TCAAGATCCT	1.15
ACTATAGTC	1.02
CGTTGATC	1
GAGTGATCCG	0.959

Sequence	switch fluorescence ratio
TACTTGTTTG	1.03
TTCGTATGTA	1.04
TATTAAACAT	1.05
CAATGGTGCA	1.04
CCATATAGGT	1.04
CATATCACGG	0.993
TGGCGGCTGC	1.01
TTTGATACGT	1.03
AACCGGATTG	0.976
GGATTCACAG	1.03
ACAGCTCTGC	1.07
GAGTACCGCA	1.38
GGGAATAGGT	1.18
TATTCACGGC	1.05
GGACCTGAGG	1.08
ATTGGCGGCA	1.01
ATTTTCGCTT	0.979
GAAAAATTAG	1.02
CCAATCGGTG	1.12
GCTTTTGGAA	1.04
CCGTTGCGTC	1.18
CCCACTTACA	1.33
AGTGGAGGGT	0.999

Sequence	switch fluorescence ratio
CCATGGCGGA	1.04
TAATAACCGA	1.13
CTTTGTGGGA	0.998
TAAGCGAGAA	1.03
CAATCGCATA	3.15
GAAGCCGCA	1.15
ACTGTCCAGA	1.03
GCGCCATGGA	1.05
TTACTGGCA	1.06
GTTACAAGGT	0.972
GTGACAGTTT	1.01
GGCACAAAGA	0.994
CATTAGCTCT	0.996
GGAAAAAACA	0.967
TACTTCCGTG	1.92
GCGGTATACC	0.983
AGCCTTCTTG	1.03
ATGAAAAGAC	1.04
AATGGACACA	1
CGGCGCGATT	2.08
GTAAGGTAAT	0.996
GCGATTTCAT	0.971
CTCTTTACTA	0.971

Sequence	switch fluorescence ratio
TGAGGATGCA	0.968
GATCATCCCT	1.05
GTTGTTCGCT	0.977
TCCCTAAACG	1.14
CGCTTGGGCT	1.02
TAAGCGACTC	1.21
CTGATGCCTA	0.925
CTCGTCGACG	0.956
TCCGGTTCCG	1.02
GGCCAATTCA	0.983
TTGAGGACTG	1.06
GCATTAAAA	0.99
GATTAGCGGG	1.01
GCTAGAGTGG	0.987
CAATGAGATG	0.959
TCACGCCAAT	1.55
GCGTAGAGAT	0.988
CATGACAGTG	1.01
GTGTACAAGG	0.987
CGCCGGTGTG	1.04
CCGATCCGCT	3.61
TCCTTTTGGG	1
TTGGACCCGT	0.996

Sequence	switch fluorescence ratio
AATATGAAAT	0.966
TGTTTAAGCA	0.999
TAGTCAAAAC	1.16
TTTCTCGAGC	0.985
CAATCATGT	0.999
GAACTGGGG	0.969
CGGACGTGGT	1.08
CTAGGCTTGT	0.995
TGTGCATAAT	1
TTCCCGACAT	1.05
AACTGCCGGA	1.01
AGTCCCGAGA	1.02
TCAATCAATG	0.982
TTAGTTCTAT	0.961
GCAGGCAATC	2.64
AGGTTTCTTG	1.03
TGAGCATCAT	0.969
ATGCGTAGTG	0.955
GATAAACCCG	1.11
ACAGGTATG	0.995

Source: the supplement of paper PMC10126150
